# Some of the results follow.
# B1: Flo5 (Saccharomyces cerevisiae), P38894 (protein)
# chain: MGSSHHHHHHSSGLVPRGSHMSGATEACLPAGQRKSGMNINFYQYSLKDSSTYSNAAYMAYGYASKTKLGSVGGQTDISIDYNIPCVSSSGTFPCPQEDSYGNWGCKGMGACSNSQGIAYWSTDLFGFYTTPTNVTLEMTGYFLPPQTGSYTFSFATVDDSAILSVGGSIAFECCAQEQPPITSTNFTINGIKPWDGSLPDNITGTVYMYAGYYYPLKVVYSNAVSWGTLPISVELPDGTTVSDNFEGYVYSFDDDLSQSNCTIPDPSIH
# Tests used:
# Assay in all cases: glycan array binding signal (z-score within array); higher = stronger binding
# Conditions in all cases: glycan notation: IUPAC condensed, linker removed
# [1] = target: GlcNAc(a1-3)Gal(b1-4)GlcNAc
# Summary of the method: (§1)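 Columns mapping to the same glycan were averaged after glycan names were converted to IUPAC-condensed notation. The data come from 3228 arrays in the Consortium for Functional Glycomics database, limited to those with an available protein sequence. Binding is reported as a within-array Z-score averaged across arrays of one protein sequence and across linkers.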
# [2] = target: GlcNAc(a1-4)Gal(b1-3)GlcNAc
# Summary of the method: as §1
# [3] = target: GlcNAc(a1-4)Gal(b1-4)GalNAc
# Summary of the method: as §1
# [4] = target: GlcNAc(a1-4)Gal(b1-4)GlcNAc
# Summary of the method: as §1
# [5] = target: GlcNAc(a1-4)Gal(b1-4)GlcNAc(b1-3)Gal(b1-4)Glc
# Summary of the method: as §1
# [6] = target: GlcNAc(a1-4)Gal(b1-4)GlcNAc(b1-3)Gal(b1-4)GlcNAc
# Summary of the method: as §1
# [7] = target: GlcNAc(a1-4)Gal(b1-4)GlcNAc(b1-3)Gal(b1-4)GlcNAc(b1-3)Gal(b1-4)GlcNAc
# Summary of the method: as §1
# [8] = target: GlcNAc(a1-4)Gal(b1-4)GlcNAc(b1-3)Gal(b1-4)[Fuc(a1-3)]GlcNAc(b1-3)Gal(b1-4)[Fuc(a1-3)]GlcNAc
# Summary of the method: as §1
# [9] = target: GlcNAc(a1-6)Gal(b1-4)GlcNAc
# Summary of the method: as §1
# [10] = target: GlcNAc(b1-2)Gal(b1-3)GalNAc
# Summary of the method: as §1
# [11] = target: GlcNAc(b1-2)Man(a1-3)[GlcNAc(b1-2)Man(a1-6)]Man(b1-4)GlcNAc(b1-4)GlcNAc
# Summary of the method: as §1
# [12] = target: GlcNAc(b1-2)Man(a1-3)[GlcNAc(b1-2)Man(a1-6)]Man(b1-4)GlcNAc(b1-4)[Fuc(a1-6)]GlcNAc
# Summary of the method: as §1
# GlcNAc(b1-3)Gal = target: GlcNAc(b1-3)Gal
# Summary of the method: as §1
# [13] = target: GlcNAc(b1-3)Gal(b1-3)GalNAc
# Summary of the method: as §1
# GlcNAc(b1-3)Gal(b1-4)Glc = target: GlcNAc(b1-3)Gal(b1-4)Glc
# Summary of the method: as §1
# [14] = target: GlcNAc(b1-3)Gal(b1-4)GlcNAc
# Summary of the method: as §1
# [15] = target: GlcNAc(b1-3)Gal(b1-4)GlcNAc(b1-3)Gal(b1-4)GlcNAc
# Summary of the method: as §1
# GlcNAc(b1-3)GalNAc = target: GlcNAc(b1-3)GalNAc
# Summary of the method: as §1
# GlcNAc(b1-3)Man = target: GlcNAc(b1-3)Man
# Summary of the method: as §1
# [16] = target: GlcNAc(b1-3)[GlcNAc(b1-4)][GlcNAc(b1-6)]GlcNAc
# Summary of the method: as §1
# [17] = target: GlcNAc(b1-3)[GlcNAc(b1-6)]Gal(b1-4)GlcNAc
# Summary of the method: as §1
# [18] = target: GlcNAc(b1-3)[GlcNAc(b1-6)]GalNAc
# Summary of the method: as §1
# [19] = target: GlcNAc(b1-4)Gal(b1-4)GlcNAc
# Summary of the method: as §1
# GlcNAc(b1-4)GlcNAc = target: GlcNAc(b1-4)GlcNAc
# Summary of the method: as §1
# [20] = target: GlcNAc(b1-4)GlcNAc(b1-4)GlcNAc
# Summary of the method: as §1
# [21] = target: GlcNAc(b1-4)GlcNAc(b1-4)GlcNAc(b1-4)GlcNAc(b1-4)GlcNAc
# Summary of the method: as §1
# [22] = target: GlcNAc(b1-4)GlcNAc(b1-4)GlcNAc(b1-4)GlcNAc(b1-4)GlcNAc(b1-4)GlcNAc
# Summary of the method: as §1
# [23] = target: GlcNAc(b1-4)[GlcNAc(b1-6)]GalNAc
# Summary of the method: as §1
# [24] = target: GlcNAc(b1-6)Gal(b1-4)GlcNAc
# Summary of the method: as §1
# GlcNAc(b1-6)GalNAc = target: GlcNAc(b1-6)GalNAc
# Summary of the method: as §1
# GlcNAc3Prop(b1-4)GlcNAc = target: GlcNAc3Prop(b1-4)GlcNAc
# Summary of the method: as §1
# [25] = target: GlcNAc6S(b1-3)Gal(b1-4)GlcNAc
# Summary of the method: as §1
# Kdn(a2-3)Gal(b1-3)GalNAc = target: Kdn(a2-3)Gal(b1-3)GalNAc
# Summary of the method: as §1
# Kdn(a2-3)Gal(b1-3)GlcNAc = target: Kdn(a2-3)Gal(b1-3)GlcNAc
# Summary of the method: as §1
# Kdn(a2-3)Gal(b1-4)Glc = target: Kdn(a2-3)Gal(b1-4)Glc
# Summary of the method: as §1
# Kdn(a2-3)Gal(b1-4)GlcNAc = target: Kdn(a2-3)Gal(b1-4)GlcNAc
# Summary of the method: as §1
# [26] = target: Kdn(a2-3)Gal(b1-4)[Fuc(a1-3)]GlcNAc
# Summary of the method: as §1
# Kdn(a2-6)Gal(b1-4)GlcNAc = target: Kdn(a2-6)Gal(b1-4)GlcNAc
# Summary of the method: as §1
binder,measurement,setting,value
B1,glycan array binding signal (z-score),[1],-0.194
same,glycan array binding signal (z-score),[2],-0.071
same,glycan array binding signal (z-score),[3],-0.153
same,glycan array binding signal (z-score),[4],-0.266
same,glycan array binding signal (z-score),[5],-0.192
same,glycan array binding signal (z-score),[6],-0.139
same,glycan array binding signal (z-score),[7],0.084
same,glycan array binding signal (z-score),[8],0.989
same,glycan array binding signal (z-score),[9],-0.154
same,glycan array binding signal (z-score),[10],-0.171
same,glycan array binding signal (z-score),[11],-0.155
same,glycan array binding signal (z-score),[12],0.311
same,glycan array binding signal (z-score),GlcNAc(b1-3)Gal,-0.205
same,glycan array binding signal (z-score),[13],-0.194
same,glycan array binding signal (z-score),GlcNAc(b1-3)Gal(b1-4)Glc,-0.146
same,glycan array binding signal (z-score),[14],-0.207
same,glycan array binding signal (z-score),[15],-0.027
same,glycan array binding signal (z-score),GlcNAc(b1-3)GalNAc,-0.184
same,glycan array binding signal (z-score),GlcNAc(b1-3)Man,-0.112
same,glycan array binding signal (z-score),[16],-0.245
same,glycan array binding signal (z-score),[17],-0.156
same,glycan array binding signal (z-score),[18],-0.169
same,glycan array binding signal (z-score),[19],-0.15
same,glycan array binding signal (z-score),GlcNAc(b1-4)GlcNAc,-0.172
same,glycan array binding signal (z-score),[20],0.412
same,glycan array binding signal (z-score),[21],-0.163
same,glycan array binding signal (z-score),[22],-0.246
same,glycan array binding signal (z-score),[23],-0.139
same,glycan array binding signal (z-score),[24],-0.098
same,glycan array binding signal (z-score),GlcNAc(b1-6)GalNAc,-0.122
same,glycan array binding signal (z-score),GlcNAc3Prop(b1-4)GlcNAc,-0.306
same,glycan array binding signal (z-score),[25],-0.209
same,glycan array binding signal (z-score),Kdn(a2-3)Gal(b1-3)GalNAc,-0.129
same,glycan array binding signal (z-score),Kdn(a2-3)Gal(b1-3)GlcNAc,-0.178
same,glycan array binding signal (z-score),Kdn(a2-3)Gal(b1-4)Glc,-0.176
same,glycan array binding signal (z-score),Kdn(a2-3)Gal(b1-4)GlcNAc,-0.231
same,glycan array binding signal (z-score),[26],-0.074
same,glycan array binding signal (z-score),Kdn(a2-6)Gal(b1-4)GlcNAc,-0.042
